Source: the supplement of paper PMC12217912
Some of the results follow. Sequences were assembled here from the parent chain. Values near 0.05 are background.

B1: TEV protease; numbered along this chain (parent)
chain: MGESLFKGPRDYNPISSSICHLTNESDGHTTSLYGIGFGPFIITNKHLFRRNNGTLVVQSLHGVFKVKDTTTLQQHLVDGRDMIIIRMPKDFPPFPQKLKFREPQREERICLVTTNFQTKSMSSMVSDTSCTFPSGDGIFWKHWIQTKDGQCGSPLVSTRDGFIVGIHSASNFTNTNNYFTSVPKNFMELLTNQEAQQWVSGWRLNADSVLWGGHKVFMVKPEEPFQPVKEATQL

Variants of: B1
Experiment: raw area under fraction-flipped curve 0-4 h after induction (AUC4h, not background-subtracted), DNA-recorder readout of cleavage of the substrate (dimensionless); higher = more cleavage of the substrate by the protease variant
Conditions: temperature: 34 °C; time window: 0-4 h after rhamnose induction
Description: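 In vivo DNA recorder in E. coli TOP10(DE3) ΔrhaA at 34 °C. Each TEVp single-site mutant (parent TEVp 0) is paired with a single-site variant of the 7-mer TEVs (canonical ENLYFQ|S). The substrate sits between flexible linkers in a Bxb1-sfGFP-TEVs-SsrA fusion, so cleavage stabilises Bxb1 and speeds flipping of a recombination array, read by NGS. The value is the raw area under the fraction-flipped curve over 0-4 h after rhamnose induction (AUC4h), with ≥20 reads per time point. It is not background-subtracted; inactive controls average about 0.047.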
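Further: Bxb1 expression induced with 0.2% (w/v) L-rhamnose at OD600 near 0.5, cultures sampled hourly, flipped fraction per protease–substrate barcode pair counted by paired-end Illumina sequencing.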

Variant | area with substrate ENAYFQS | area with substrate ENDYFQS | area with substrate ENEYFQS | area with substrate ENIYFQS | area with substrate ENMYFQS | area with substrate ENRYFQS | area with substrate ENVYFQS | area with substrate ENCYFQS | area with substrate ENGYFQS | area with substrate ENHYFQS | area with substrate ENNYFQS | area with substrate ENPYFQS | area with substrate ENTYFQS | area with substrate ENYYFQS | area with substrate ENSYFQS | area with substrate ENKYFQS | area with substrate ENQYFQS | area with substrate ENWYFQS | area with substrate ENFYFQS
MGESLFKGPRDYNPISSSICHLTNESDGHTTSLYGIGFGPFIITNKHLFRRNNGTLVIQSLHGVFKVKDTTTLQQHLVDGRDMIIIRMPKDFPPFPQKLKFREPQREERICLVTTNFQTKSMSSMVSDTSCTFPSGDGIFWKHWIQTKDGQCGSPLVSTRDGFIVGIHSASNFTNTNNYFTSVPKNFMELLTNQEAQQWVSGWRLNADSVLWGGHKVFMVKPEEPFQPVKEATQL [V58I] | 0.0849 | 0.0576 | 0.0679 | 0.0849 | 0.0937 | 0.0505 | 0.0895 |  |  |  |  |  |  |  |  |  |  |  | 
MGESLFKGPRDYNPISSSICHLTNESDGHTTSLYGIGFGPFIITNKHLFRRNNGTLVCQSLHGVFKVKDTTTLQQHLVDGRDMIIIRMPKDFPPFPQKLKFREPQREERICLVTTNFQTKSMSSMVSDTSCTFPSGDGIFWKHWIQTKDGQCGSPLVSTRDGFIVGIHSASNFTNTNNYFTSVPKNFMELLTNQEAQQWVSGWRLNADSVLWGGHKVFMVKPEEPFQPVKEATQL [V58C] | 0.0605 | 0.0597 | 0.0549 | 0.117 |  |  | 0.0609 | 0.0671 | 0.0551 | 0.0664 | 0.0544 | 0.0577 | 0.0533 | 0.0626 |  |  |  |  | 
MGESLFKGPRDYNPISSSICHLTNESDGHTTSLYGIGFGPFIITNKHLFRRNNPTLVVQSLHGVFKVKDTTTLQQHLVDGRDMIIIRMPKDFPPFPQKLKFREPQREERICLVTTNFQTKSMSSMVSDTSCTFPSGDGIFWKHWIQTKDGQCGSPLVSTRDGFIVGIHSASNFTNTNNYFTSVPKNFMELLTNQEAQQWVSGWRLNADSVLWGGHKVFMVKPEEPFQPVKEATQL [G54P] | 0.0552 |  |  |  |  |  | 0.0831 |  |  |  | 0.0529 |  |  |  | 0.0609 |  |  |  | 
MGESLFKGPRDYNPISSSICHLTNESDGHTTSLYGIGFGPFIITNKHLTRRNNGTLVVQSLHGVFKVKDTTTLQQHLVDGRDMIIIRMPKDFPPFPQKLKFREPQREERICLVTTNFQTKSMSSMVSDTSCTFPSGDGIFWKHWIQTKDGQCGSPLVSTRDGFIVGIHSASNFTNTNNYFTSVPKNFMELLTNQEAQQWVSGWRLNADSVLWGGHKVFMVKPEEPFQPVKEATQL [F49T] | 0.0565 | 0.0614 | 0.0704 |  | 0.0556 | 0.0495 | 0.0599 | 0.0775 | 0.0521 | 0.0528 | 0.0558 |  | 0.0734 | 0.0481 | 0.0541 | 0.0573 | 0.0568 | 0.0555 | 
MGESLFKGPRDYNPISSSICHLTNESDGHTTSLYGIGFGPFIITNKHLNRRNNGTLVVQSLHGVFKVKDTTTLQQHLVDGRDMIIIRMPKDFPPFPQKLKFREPQREERICLVTTNFQTKSMSSMVSDTSCTFPSGDGIFWKHWIQTKDGQCGSPLVSTRDGFIVGIHSASNFTNTNNYFTSVPKNFMELLTNQEAQQWVSGWRLNADSVLWGGHKVFMVKPEEPFQPVKEATQL [F49N] | 0.055 | 0.057 | 0.0721 |  | 0.0506 | 0.0558 |  |  | 0.0523 |  | 0.054 | 0.0381 | 0.0632 | 0.0544 | 0.0521 | 0.0649 | 0.0636 |  | 0.0571
MGESLFKGPRDYNPISSSICHLTNESDGHTTSLYGIGFGPFIITNKHLFRRNNGWLVVQSLHGVFKVKDTTTLQQHLVDGRDMIIIRMPKDFPPFPQKLKFREPQREERICLVTTNFQTKSMSSMVSDTSCTFPSGDGIFWKHWIQTKDGQCGSPLVSTRDGFIVGIHSASNFTNTNNYFTSVPKNFMELLTNQEAQQWVSGWRLNADSVLWGGHKVFMVKPEEPFQPVKEATQL [T55W] | 0.0415 | 0.0496 | 0.0518 | 0.109 | 0.0739 | 0.0477 | 0.0772 | 0.0576 | 0.0702 | 0.0644 | 0.0549 | 0.0542 | 0.067 | 0.0862 | 0.0555 | 0.0469 | 0.0512 | 0.0043 | 
MGESLFKGPRDYNPISSSICHLTNESDGHTTSLYGIGFGPFIITNKHLFRRNNGRLVVQSLHGVFKVKDTTTLQQHLVDGRDMIIIRMPKDFPPFPQKLKFREPQREERICLVTTNFQTKSMSSMVSDTSCTFPSGDGIFWKHWIQTKDGQCGSPLVSTRDGFIVGIHSASNFTNTNNYFTSVPKNFMELLTNQEAQQWVSGWRLNADSVLWGGHKVFMVKPEEPFQPVKEATQL [T55R] | 0.063 | 0.0517 | 0.061 |  |  | 0.0463 |  | 0.0615 | 0.0612 | 0.053 | 0.0631 |  | 0.0755 | 0.0536 | 0.0478 | 0.0533 | 0.0399 | 0.0663 | 0.0595
MGESLFKGPRDYNPISSSICHLTNESDGHTTSLYGIGFGPFIITNKHLFRDNNGTLVVQSLHGVFKVKDTTTLQQHLVDGRDMIIIRMPKDFPPFPQKLKFREPQREERICLVTTNFQTKSMSSMVSDTSCTFPSGDGIFWKHWIQTKDGQCGSPLVSTRDGFIVGIHSASNFTNTNNYFTSVPKNFMELLTNQEAQQWVSGWRLNADSVLWGGHKVFMVKPEEPFQPVKEATQL [R51D] | 0.0536 |  | 0.0581 |  |  |  | 0.0937 | 0.0695 |  |  |  |  |  |  | 0.0656 | 0.0743 | 0.0561 | 0.063 | 
MGESLFKGPRDYNPISSSICHLTNESDGHTTSLYGIGFGPFIITNKHLFRQNNGTLVVQSLHGVFKVKDTTTLQQHLVDGRDMIIIRMPKDFPPFPQKLKFREPQREERICLVTTNFQTKSMSSMVSDTSCTFPSGDGIFWKHWIQTKDGQCGSPLVSTRDGFIVGIHSASNFTNTNNYFTSVPKNFMELLTNQEAQQWVSGWRLNADSVLWGGHKVFMVKPEEPFQPVKEATQL [R51Q] | 0.0642 | 0.0518 | 0.0655 |  | 0.078 | 0.0586 | 0.0823 | 0.0778 | 0.0514 | 0.0708 | 0.0547 | 0.0339 | 0.0503 | 0.0543 | 0.0475 | 0.0575 | 0.0503 |  | 0.056
